# T1: CTLA-4 (as used in the SPR and ELISA binding studies) (UniProt P16410 36-161, limits assumed)
# T1 construct: also called cytotoxic T-lymphocyte-associated antigen-4
# T1 sequence (looked up): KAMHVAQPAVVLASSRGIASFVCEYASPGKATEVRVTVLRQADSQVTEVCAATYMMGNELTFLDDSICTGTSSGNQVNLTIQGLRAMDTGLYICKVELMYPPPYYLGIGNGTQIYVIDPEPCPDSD
# Columns and labels:
# [1] = target: T2, CD28 (as used in the SPR binding study) (UniProt P10747 19-152, limits assumed); test: SPR
# T2 construct: also called cluster of differentiation 28
# T2 sequence (P10747 19-152 limits assumed): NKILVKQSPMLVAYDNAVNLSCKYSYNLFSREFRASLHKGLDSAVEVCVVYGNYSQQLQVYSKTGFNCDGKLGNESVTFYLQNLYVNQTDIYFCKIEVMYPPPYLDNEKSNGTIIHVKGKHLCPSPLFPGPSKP
# [2] = target: T3, PD-L1 (as used in the SPR binding study) (UniProt Q9NZQ7 fragment, limits assumed); test: SPR
# T3 construct: also called programmed death-ligand 1
# T3 sequence (Q9NZQ7 19-238 limits assumed): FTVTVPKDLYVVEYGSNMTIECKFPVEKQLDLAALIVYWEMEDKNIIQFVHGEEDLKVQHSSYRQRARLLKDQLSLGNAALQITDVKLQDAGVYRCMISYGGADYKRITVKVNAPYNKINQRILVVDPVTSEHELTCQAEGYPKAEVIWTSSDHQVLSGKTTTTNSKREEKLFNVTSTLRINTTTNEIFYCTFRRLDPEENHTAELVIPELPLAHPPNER
# [3] = target: T1, CTLA-4 (as used in the SPR and ELISA …); test: SPR
# [4] = target: T1, CTLA-4 (as used in the SPR and ELISA …); test: CTLA-4 binding ELISA
binder,measurement,setting,value
"human CD80 ECD:human IgG Fc fusion protein comprising the amino acid sequence of SEQ ID NO:5 (hCD80ECD:hIgG1Fc) (Fc fusion, also called CD80 ECD-Fc fusion protein; Human CD80 ECD Human Fc IgG1 WT) VIHVTKEVKEVATLSCGHNVSVEELAQTRIYWQKEKKMVLTMMSGDMNIWPEYKNRTIFDITNNLSIVILALRPSDEGTYECVVLKYEKDAFKREHLAEVTLSVKADFPTPSISDFEIPTSNIRRIICSTSGGFPEPHLSWLENGEELNAINTTVSQDPETELYAVSSKLDFNMTTNHSFMCLIKYGHLRVNQTFNWNTTKQEHFPDN[human IgG1 Fc with changes not spelt out]",Kd,[1],> 1000 nM
same,Kd,[2],183 nM
same,Kd,[3],1.8 nM
same,EC50,[4],0.034 µg/mL

# — patent publication US20230023174A1 (Five Prime, published 2023)
